These are yes or no findings as the source states them, for the method shown. In cells and extracts the contact can be indirect. Some results given as binding are weak or reduced against the parent protein; the word gives no strength. For part of these data: Sequences can lack the tags named with a protein.
What was measured:
[1] = target: T1, Retinoic acid-inducible gene I (RIG-I), tagged, transfected (UniProt O95786); test: co-IP; HEK293T cells (2 x 10^6) transfected with the indicated plasmids for 24 h; lysate with monoclonal antibody or control mouse IgG and protein G agarose, 4 °C, 2 h; washed with lysis buffer containing 0.5 M NaCl; western blot
T1 sequence: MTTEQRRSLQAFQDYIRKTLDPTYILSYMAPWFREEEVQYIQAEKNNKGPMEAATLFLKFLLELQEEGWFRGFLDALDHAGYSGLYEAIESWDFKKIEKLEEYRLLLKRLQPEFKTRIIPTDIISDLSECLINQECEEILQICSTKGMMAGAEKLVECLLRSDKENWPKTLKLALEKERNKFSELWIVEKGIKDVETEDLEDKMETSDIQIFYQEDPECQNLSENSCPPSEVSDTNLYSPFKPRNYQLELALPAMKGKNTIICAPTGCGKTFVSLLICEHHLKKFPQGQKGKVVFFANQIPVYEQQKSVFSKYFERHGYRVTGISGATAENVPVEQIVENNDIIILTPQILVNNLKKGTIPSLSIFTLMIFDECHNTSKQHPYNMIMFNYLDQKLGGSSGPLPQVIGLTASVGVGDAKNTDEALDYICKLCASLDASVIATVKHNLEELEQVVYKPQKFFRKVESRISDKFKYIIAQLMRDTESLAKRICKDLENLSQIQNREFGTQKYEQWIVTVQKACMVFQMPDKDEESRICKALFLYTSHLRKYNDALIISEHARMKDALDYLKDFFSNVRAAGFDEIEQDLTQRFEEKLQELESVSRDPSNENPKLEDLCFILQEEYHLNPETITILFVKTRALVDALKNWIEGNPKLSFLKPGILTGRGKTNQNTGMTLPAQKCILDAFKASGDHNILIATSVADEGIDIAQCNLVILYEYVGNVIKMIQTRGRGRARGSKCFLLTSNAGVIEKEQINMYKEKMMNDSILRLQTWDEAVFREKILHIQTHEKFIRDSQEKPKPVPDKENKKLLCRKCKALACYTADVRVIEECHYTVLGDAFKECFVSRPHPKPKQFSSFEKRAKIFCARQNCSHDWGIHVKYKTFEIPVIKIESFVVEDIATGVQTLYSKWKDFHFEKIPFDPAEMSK

Sequences of proteins named here, by UniProt entry; tags and fusion partners are left off. A change or cut given only in a name is not applied to a line headed by its entry.
UniProt Q7Z434: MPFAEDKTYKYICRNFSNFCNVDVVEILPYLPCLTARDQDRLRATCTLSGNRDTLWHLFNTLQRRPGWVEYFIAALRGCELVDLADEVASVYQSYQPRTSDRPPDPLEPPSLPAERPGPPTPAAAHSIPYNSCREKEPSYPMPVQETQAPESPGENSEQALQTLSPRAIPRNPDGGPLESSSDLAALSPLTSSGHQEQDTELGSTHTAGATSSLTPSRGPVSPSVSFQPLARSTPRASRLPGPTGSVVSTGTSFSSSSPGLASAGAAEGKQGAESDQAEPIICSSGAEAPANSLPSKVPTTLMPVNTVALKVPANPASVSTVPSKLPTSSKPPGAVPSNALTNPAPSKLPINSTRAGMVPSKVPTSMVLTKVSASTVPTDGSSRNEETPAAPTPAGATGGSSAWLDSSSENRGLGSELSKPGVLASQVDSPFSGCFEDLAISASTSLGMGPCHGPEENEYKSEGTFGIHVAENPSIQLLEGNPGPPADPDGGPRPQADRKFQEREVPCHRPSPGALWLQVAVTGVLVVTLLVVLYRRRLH
UniProt Q13283: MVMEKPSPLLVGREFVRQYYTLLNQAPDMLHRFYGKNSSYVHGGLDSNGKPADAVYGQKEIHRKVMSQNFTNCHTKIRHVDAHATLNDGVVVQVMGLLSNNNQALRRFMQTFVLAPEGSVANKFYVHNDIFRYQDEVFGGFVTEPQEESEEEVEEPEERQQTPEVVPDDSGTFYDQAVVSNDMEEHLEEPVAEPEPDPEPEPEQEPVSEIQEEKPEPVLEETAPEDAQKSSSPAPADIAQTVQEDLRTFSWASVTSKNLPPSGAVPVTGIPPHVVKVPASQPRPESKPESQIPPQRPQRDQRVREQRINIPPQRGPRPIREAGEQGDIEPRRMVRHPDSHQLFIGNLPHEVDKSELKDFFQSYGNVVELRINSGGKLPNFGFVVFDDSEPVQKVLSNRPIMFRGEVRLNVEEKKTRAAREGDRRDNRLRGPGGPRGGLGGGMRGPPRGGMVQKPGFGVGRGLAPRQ

[2] = target: T2, RNF125, tagged, transfected (UniProt Q96EQ8); test: as above
T2 sequence: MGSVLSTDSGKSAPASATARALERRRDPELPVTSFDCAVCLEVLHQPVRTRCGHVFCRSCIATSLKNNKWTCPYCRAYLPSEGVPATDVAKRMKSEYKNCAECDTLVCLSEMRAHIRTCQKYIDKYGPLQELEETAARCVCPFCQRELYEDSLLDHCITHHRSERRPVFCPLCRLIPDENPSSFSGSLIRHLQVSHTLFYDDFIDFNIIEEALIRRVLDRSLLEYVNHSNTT

[3] = target: T3, RNF125, endogenous (human (endogenous in HEK293T)) (UniProt Q96EQ8); test: co-IP; endogenous proteins; HEK293T cells (5 x 10^7) uninfected or infected with SeV for the indicated time; lysate with antiserum or pre-immune control serum; western blot
T3 sequence: T2 sequence

MDA5, transfected = target: T4, MDA5, transfected (UniProt Q9BYX4); test: co-IP; HEK293T cells (2 x 10^6) transfected with the indicated plasmids for 24 h; lysate with monoclonal antibody or control mouse IgG and protein G agarose, 4 °C, 2 h; washed with lysis buffer containing 0.5 M NaCl; western blot
T4 sequence: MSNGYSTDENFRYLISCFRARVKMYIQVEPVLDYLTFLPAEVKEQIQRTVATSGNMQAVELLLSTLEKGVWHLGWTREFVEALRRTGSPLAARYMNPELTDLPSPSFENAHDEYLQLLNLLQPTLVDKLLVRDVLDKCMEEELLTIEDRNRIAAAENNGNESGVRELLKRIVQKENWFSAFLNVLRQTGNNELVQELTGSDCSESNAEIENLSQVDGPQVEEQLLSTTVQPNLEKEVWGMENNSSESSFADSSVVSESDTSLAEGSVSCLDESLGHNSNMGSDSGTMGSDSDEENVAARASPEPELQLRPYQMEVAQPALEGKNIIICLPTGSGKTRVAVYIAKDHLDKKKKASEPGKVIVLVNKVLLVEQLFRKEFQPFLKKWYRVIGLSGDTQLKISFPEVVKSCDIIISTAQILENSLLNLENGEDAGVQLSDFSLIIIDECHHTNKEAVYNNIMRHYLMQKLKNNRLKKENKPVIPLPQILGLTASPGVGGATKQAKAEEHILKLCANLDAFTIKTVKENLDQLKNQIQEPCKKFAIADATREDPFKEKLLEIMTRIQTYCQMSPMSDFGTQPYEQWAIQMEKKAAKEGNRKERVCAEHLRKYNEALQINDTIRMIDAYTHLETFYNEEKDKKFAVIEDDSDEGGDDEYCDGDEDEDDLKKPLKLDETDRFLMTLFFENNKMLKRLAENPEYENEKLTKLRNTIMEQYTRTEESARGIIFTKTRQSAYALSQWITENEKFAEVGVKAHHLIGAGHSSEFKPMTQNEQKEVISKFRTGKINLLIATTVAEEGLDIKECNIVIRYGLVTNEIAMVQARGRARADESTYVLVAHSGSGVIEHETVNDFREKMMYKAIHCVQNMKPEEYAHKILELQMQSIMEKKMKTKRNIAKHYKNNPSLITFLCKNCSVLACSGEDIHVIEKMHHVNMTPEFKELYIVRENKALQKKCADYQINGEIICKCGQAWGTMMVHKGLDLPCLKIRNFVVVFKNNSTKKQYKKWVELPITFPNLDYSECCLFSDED

MAVS, transfected = MAVS, transfected (UniProt Q7Z434); test: as above

Row | Substance | binding [1] | binding [2] | binding [3] | binding (MDA5, transfected) | binding (MAVS, transfected)
1 | G3BP1 NTF2 (from UniProt Q13283 11-133) (domain or fragment) | no binding | no binding |  |  | 
2 | G3BP1 (E285A) mutant (from UniProt Q13283 1-466) | binds |  |  |  | 
3 | Ras-GTPase-activating protein SH3-domain-binding protein 1 (G3BP1), tagged, transfected (from UniProt Q13283 1-466) |  | binds |  | no binding | no binding

Next, values leading:

Row | binding [1] | binding [2] | binding [3] | binding (MDA5, transfected) | binding (MAVS, transfected) | Substance
4 | no binding | no binding |  |  |  | G3BP1 RRM (from UniProt Q13283 340-415) (domain or fragment)
5 |  |  | binds |  |  | G3BP1, endogenous (from UniProt Q13283 1-466)

Source: article PMC6906297
